Out of some 350,000 compounds screened, about 31,000 (8.9%) were called active. The inconclusive results got no clear call from the source; some entries with a clear call stand among them for comparison. The call rests on the fitted dose curve; in most records, active means well fitted inhibition curve with a large enough effect; inconclusive means small, poorly fitted or top-dose-only effect; inactive means no such curve, though single readings can be large or run the other way. Potencies beside an inconclusive call are fits to weak or partial responses and may not hold up.
These compounds were tested against Histone-lysine N-methyltransferase EHMT2 (Homo sapiens) (UniProt Q96KQ7) (assay: qHTS Assay for Inhibitors of Histone Lysine Methyltransferase G9a). Conditions: G9a H3K9 monomethylation, AlphaScreen, 2 h; activity, negative = inhibition: at 59 µM (top of the series) unless noted.
How it was run: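 AlphaScreen read-out: biotin-H3K9 peptide (500 nM) methylation by 20 nM enzyme with 20 uM SAM, 2 h at room temperature after 15 min compound preincubation; anti-monomethyl H3K9 antibody plus donor/acceptor beads, 10 min dark.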
Further: nearly all actives have a fitted effect of over 75% in size.
On the % scale 0 is the no-effect control and ±100 the full control effect; potency means the concentration at half of the fitted maximal effect; tags describe the fitted curve by direction and shape.

Sequence of UniProt Q96KQ7 (Q96KQ7 whole entry, looked up): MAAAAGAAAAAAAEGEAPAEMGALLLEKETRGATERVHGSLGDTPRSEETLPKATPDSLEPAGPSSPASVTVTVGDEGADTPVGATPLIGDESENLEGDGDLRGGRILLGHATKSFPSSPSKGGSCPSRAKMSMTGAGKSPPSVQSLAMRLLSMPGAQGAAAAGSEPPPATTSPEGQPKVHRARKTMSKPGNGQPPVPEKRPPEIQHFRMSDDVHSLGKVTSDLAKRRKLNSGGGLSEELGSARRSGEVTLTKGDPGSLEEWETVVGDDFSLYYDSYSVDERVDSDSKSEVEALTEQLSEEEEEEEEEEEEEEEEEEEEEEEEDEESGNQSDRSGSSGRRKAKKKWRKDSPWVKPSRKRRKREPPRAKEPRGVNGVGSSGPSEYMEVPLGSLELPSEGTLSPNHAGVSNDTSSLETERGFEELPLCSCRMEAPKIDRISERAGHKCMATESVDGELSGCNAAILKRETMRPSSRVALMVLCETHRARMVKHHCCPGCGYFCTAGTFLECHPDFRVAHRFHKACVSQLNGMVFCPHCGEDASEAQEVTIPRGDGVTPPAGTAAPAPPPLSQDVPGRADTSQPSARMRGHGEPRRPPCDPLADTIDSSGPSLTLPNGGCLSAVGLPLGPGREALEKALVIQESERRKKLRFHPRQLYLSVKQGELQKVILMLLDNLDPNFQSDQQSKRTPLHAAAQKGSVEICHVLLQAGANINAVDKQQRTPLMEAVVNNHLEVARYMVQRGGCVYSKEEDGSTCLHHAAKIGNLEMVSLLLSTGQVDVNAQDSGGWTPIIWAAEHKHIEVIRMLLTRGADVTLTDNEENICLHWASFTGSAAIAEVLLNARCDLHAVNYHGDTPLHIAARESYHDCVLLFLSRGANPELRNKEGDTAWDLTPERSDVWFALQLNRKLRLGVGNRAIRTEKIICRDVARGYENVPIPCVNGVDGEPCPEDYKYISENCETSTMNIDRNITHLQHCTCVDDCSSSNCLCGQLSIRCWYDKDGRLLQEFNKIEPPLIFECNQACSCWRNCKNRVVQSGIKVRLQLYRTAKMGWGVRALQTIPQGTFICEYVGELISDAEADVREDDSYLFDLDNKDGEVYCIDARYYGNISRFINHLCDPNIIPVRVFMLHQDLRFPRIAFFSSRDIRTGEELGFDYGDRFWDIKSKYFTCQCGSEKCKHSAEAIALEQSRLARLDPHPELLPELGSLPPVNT

Structure (SMILES) | activity, negative = inhibition | Potency
CCOc1ccccc1NC1=C(Cl)C(=O)N(Cc2ccccc2)C1=O | inactive: 4.6% [at 12.7 µM] | –
CSc1ncc(Cl)c(C(=O)C(C#N)c2nc3c(C)cc(C)cc3c(=O)[nH]2)n1 (centres undefined) | – | inconclusive: 39.8 µM [inhibitor, single point]
CCc1ccc(NC(=O)c2ccc3ncsc3c2)cc1 | – | inactive
Cc1ccn2c(CNCC3COCCO3)c(C(=O)N3CCCCCC3)nc2c1 (centres undefined) | – | inactive
CN(CC(=O)Nc1ccccc1Cl)C(=O)Cn1cnc2ccccc2c1=O | – | inconclusive: 56.2 µM [inhibitor, partial curve, poor fit]
O=C(CCOc1ccccc1)OCC(=O)c1cc2ccccc2o1 | – | inconclusive: 89.1 µM [inhibitor, partial curve, poor fit]
CCc1ccccc1NC(=O)C(CC)Sc1nc2cc3c(cc2c(=O)n1Cc1ccco1)OCO3 (centres undefined) | inactive: -4.24% [at 12.7 µM] | –
Cc1cc(C)nc(SCc2ccc([N+](=O)[O-])cc2)n1 | – | inconclusive: 79.4 µM [inhibitor, partial curve, poor fit]
Cc1c(NC(=O)c2ccc(S(=O)(=O)N(C)c3ccccc3)cc2)c(=O)n(-c2ccccc2)n1C | – | inactive
Cc1cc(Br)ccc1N=C1NC(=O)CS1 | – | active: 20 µM
Cc1c(C(=O)Nc2ccc(F)cc2)oc2ccc(S(=O)(=O)N3CCCCCC3)cc12 | – | inconclusive: 31.6 µM [inhibitor, partial curve, poor fit]
C=CCn1c(CCn2c3ccccc3c3ccccc32)n[nH]c1=S | – | inconclusive: 1.41 µM [inhibitor, full curve, poor fit]
O=C1CC(N2CCN(c3ccccc3Cl)CC2)C(=O)N1c1cccc(F)c1 (centres undefined) | inconclusive: -75.6% [inhibitor] | –
CC(NC(=O)c1cccc(S(=O)(=O)N2CCN(C)CC2)c1)c1ccc(Cl)cc1Cl (centres undefined) | – | inconclusive: 50.1 µM [inhibitor, partial curve]
CCN(CC)c1ccc(N=C2C(=O)Nc3ccccc32)cc1 | – | active: 6.31 µM
CN(C(=O)c1ccncc1)c1nnc(-c2ccccn2)s1 | inactive: -3.97% [at 12.7 µM] | –
O=C(COc1ccccc1Cl)Nc1cccc(S(=O)(=O)NC2=NCCCCC2)c1 | – | active: 50.1 µM
CN(c1ccccc1)S(=O)(=O)c1ccc(C(=O)NCc2ccco2)cc1 | – | inconclusive: 79.4 µM [inhibitor, partial curve, poor fit]
CN1CCC(N(C)C(=S)Nc2ccc(F)cc2)CC1 | – | inconclusive: 39.8 µM [inhibitor, partial curve, poor fit]

From PubChem BioAssay AID504332 (National Center for Advancing Translational Sciences (NCATS), 2011)
